According to PubChem BioAssay AID759 (NMMLSC, 2007):
Among all 190,000 compounds or so, about 270 (0.14%) were called active. This list was built around the results that the source calls inconclusive (neither active nor inactive); the mix of calls is not that of the screen.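 The calls were made as follows: active = GTP binding activity at least 20% away from the 100% baseline, either lowered as inhibitor or raised as activator; inconclusive = flagged as likely green fluorescent, judged across all proteins in the well; inactive = the rest.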

Molecular target: GTPase HRas (Homo sapiens) (UniProt P01112)
UniProt P01112, sequence (P01112 whole entry, looked up): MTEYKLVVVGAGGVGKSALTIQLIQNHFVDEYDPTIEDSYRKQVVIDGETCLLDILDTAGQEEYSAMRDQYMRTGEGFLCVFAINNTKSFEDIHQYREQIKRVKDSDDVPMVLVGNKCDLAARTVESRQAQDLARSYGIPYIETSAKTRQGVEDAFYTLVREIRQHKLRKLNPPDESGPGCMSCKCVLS
Assay: HRas wt fluorescent GTP binding changes, either direction – biochemical, wildtype, bead-based flow cytometry, multiplex, primary screen (AID 759);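 also: 0% = unlabeled GTP competition control and 100% = no-compound control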
Conditions: GST-Ras wt beads, Bodipy-FL-GTP binding, at 10 µM, actives lie on both sides

Row | SMILES | GTP binding activity
1 | Cc1ccc(-c2nnc(CCC(=O)NCC3C4CC5CC(C4)CC3C5)o2)s1 (stereo not drawn) | inactive: 99%
2 | Nc1ccc2c(c1)Oc1ccccc1C=C2 | inconclusive: 92%
3 | CCOC(=O)C1CCN(C(=O)Cc2cccs2)CC1 | inconclusive: 97%
4 | CCCCC(=O)NC1(C(F)(F)F)C(=O)N(CC(C)C)C2=C1C(=O)CC(C)(C)C2 (stereo not drawn) | inactive: 106%
5 | C=CCNC(=O)c1ccccc1NC(=O)c1ccc(Cl)c(S(=O)(=O)Nc2ccccc2)c1 | inactive: 102%
6 | COc1ccc(Cl)cc1NC(=S)NCCN1CCOCC1 | inconclusive: 96%
7 | CCCn1c(N)c(Sc2ccc([N+](=O)[O-])cc2)c(=O)n(CCC)c1=O | inconclusive: 92%
8 | O=C(Nc1ccc2ncccc2c1)c1cc(Cl)ccc1Cl | inactive: 94%
9 | CC(=O)c1cn(CC(=O)Nc2cccc(C)c2C)c2ccccc12 | inconclusive: 94%
10 | O=C(Oc1cccnc1)c1cc2ccccc2oc1=O | inconclusive: 90%
11 | Cc1c(Cl)cccc1NC(=O)NCc1ccncc1 | inactive: 97%
12 | CC[n+]1oc(-c2ccccc2)cc1C | inactive: 97%
13 | CCC(Sc1nc2cc3c(cc2c(=O)n1Cc1ccco1)OCO3)C(=O)Nc1ccccc1OC (stereo not drawn) | inconclusive: 97%
14 | CN(C)c1ccc(/C=C/C(=O)c2ccc3c(c2)OCCO3)cc1[N+](=O)[O-] | inconclusive: 93%
15 | COc1ccc(CC(=O)OCc2cc(=O)n3cc(Br)ccc3n2)cc1OC | inactive: 98%
16 | CC1CCc2c(sc(NC(=O)COC(=O)c3ccc(O)cc3)c2C#N)C1 (stereo not drawn) | inactive: 95%
17 | COc1cc(CN(C2CCCCC2)S(=O)(=O)c2ccc(S(=O)(=O)N(C)C3CCCCC3)cc2)cc(OC)c1OC | inactive: 103%
18 | COc1cc(C(C)=O)ccc1Oc1ncnc2c1cnn2-c1ccc(F)cc1 | inactive: 99%
19 | COc1ccc(O)c(CNc2ccccc2F)c1 | inconclusive: 95%
20 | O=C(N1CCOCC1)C12CC3CC(C1)CC(n1cnc(Cl)n1)(C3)C2 | inactive: 102%

Row | SMILES | GTP binding activity
21 | CC(C)CC(NC(=O)CNC(=O)C1O[C@@H]2OC(C)(C)O[C@@H]2[C@H]2OC(C)(C)O[C@@H]12)C(=O)O (stereo partly drawn) | inactive: 97%
22 | CCOCCCNC(=O)c1ccc(Cn2c(=S)[nH]c3c([nH]c4ccc(OC)cc43)c2=O)cc1 | inconclusive: 95%
23 | COCCN1Cc2cccc(C(=O)Nc3cc(C)cc(C)c3)c2C1=O | inconclusive: 88%
24 | O=C(Cn1cnc([N+](=O)[O-])c1)NC1CCCC1 | inactive: 97%
25 | CCn1c(SCC(=O)Nc2ccc3c(c2)c2ccccc2n3CC)nnc1-c1cnccn1 | inconclusive: 90%
26 | Cc1ccc(Nc2cc(-n3nc(C)cc3C)ncn2)c(C)c1 | inconclusive: 101%
27 | COc1ccc(-c2cc(C(F)(F)F)n3nc(C(=O)O)cc3n2)cc1OC | inactive: 86%
28 | Fc1ccc(-c2c[nH]c(=S)n2Cc2ccccc2)cc1 | inactive: 94%
29 | COc1ccc(C(=O)NN/C(C)=C/C(=O)C(F)(F)C(F)(F)C(F)(F)F)cc1 | inactive: 101%
30 | COc1cc(OC)c(C2N(C)c3ccccc3N2C)cc1OC | inconclusive: 104%
31 | Cc1ccc(OCCn2cnc(Cl)c2Cl)cc1 | inactive: 97%
32 | COc1cc(/C=C/C(=O)O)cc(S(=O)(=O)NCc2ccc3c(c2)OCO3)c1OC | inactive: 97%
33 | CC(=O)c1ccccc1NC(=O)Cn1c(=O)cnc2ccccc21 | inactive: 101%
34 | CCOC(=O)N1CCN(C(=O)c2ccc(Cn3c(=S)[nH]c4cc(OCC)c(OCC)cc4c3=O)cc2)CC1 | inconclusive: 92%
35 | CN(C)c1ccnc(N(Cc2ccccc2)Cc2ccccc2)c1C#N | inactive: 99%
36 | Cc1nc2ccccc2c(=O)n1/N=C/c1ccc(O)cc1O | inconclusive: 94%
37 | Cc1ccc(CSc2ccc3nnc(-c4cccnc4)n3n2)cc1 | inconclusive: 92%
38 | Cc1ccc(NC(=S)Nc2ccc(OC(F)F)c(Cl)c2)cc1F | inactive: 99%
39 | COc1cc(/C=N/NC(=O)c2cn(-c3cccc(C)n3)cn2)ccc1O | inconclusive: 83%
40 | CC(=O)Nc1ccc(-n2nnnc2SCC(=O)NCc2cccs2)cc1 | inactive: 94%

Row | SMILES | GTP binding activity
41 | Cc1ccc(C(=O)Nc2ccc(Br)cc2)cc1S(=O)(=O)Nc1ccccn1 | inconclusive: 88%
42 | CCOc1ccc(NS(=O)(=O)c2cc(C)c(C)cc2C)cc1 | inactive: 98%
43 | CC(C)Oc1cccc(C(=O)C2CCCN(C(=O)CCn3cnnn3)C2)c1 (stereo not drawn) | inactive: 103%
44 | c1ccc(C2=Nn3c(nnc3-c3ccncc3)SC2)cc1 | inconclusive: 104%
45 | Cc1oc(-c2cccs2)nc1CN1CCC(CO)(CCOc2ccccc2)CC1 | inactive: 96%
46 | COc1ccc(N(CC(=O)O)S(=O)(=O)c2ccccc2[N+](=O)[O-])c(OC)c1 | inconclusive: 94%
47 | O=C(CSc1nnc(CNC(=O)c2cccs2)o1)NC1CCCC1 | inconclusive: 103%
48 | NC(=O)CSc1nnc(-c2ccc(O)cc2)n1Cc1ccco1 | inconclusive: 77%
49 | COc1cccc(/C=C2\SC(=S)N(NC(=O)c3ccncc3)C2=O)c1 | inconclusive: 72%
50 | COc1cc(/C=C2/SC(=S)NC2=O)ccc1OS(=O)(=O)c1ccc(C)cc1 | inactive: 97%
51 | Cn1c(=N)c(S(=O)(=O)c2ccccc2)cc2c(=O)n3ccccc3nc21 | inconclusive: 85%
52 | COc1ccc(/C=N/n2c(N)c(S(=O)(=O)c3cccs3)c3nc4ccccc4nc32)cc1OC | active: 56%
53 | Cc1cccc(CSc2ncccc2C(=O)O)c1 | active: 129% [activator]
54 | CCOc1ccc(N(CC(=O)NCCc2ccc(Cl)cc2)S(=O)(=O)c2c(C)[nH]c(=O)[nH]c2=O)cc1 | inactive: 86%
55 | O=C(COC(=O)Cc1ccc(S(=O)(=O)N2CCOCC2)s1)Nc1ccc2c(c1)OCO2 | inconclusive: 105%
56 | CCCN(CCC)S(=O)(=O)c1ccc(C(=O)Nc2cc3oc4ccccc4c3cc2OC)cc1 | inactive: 98%
57 | COC(/C=C/Nc1ccc(OC)cc1)=C(C#N)C#N | inconclusive: 105%
58 | Cc1cc(=O)oc2cc(OCC(=O)OCC(=O)Nc3ccccc3F)ccc12 | inconclusive: 94%
